The list shows a part of the results.
B1: PhoQ; a variant is named by its letters at X, in order, P23837 (parent)
chain: MKKLLRLFFPLSLRVRFLLATAAVVLVLSLAYGMVALIGYSVSFDKTTFRLLRGESNLFYTLAKWENNKLHVELPENIDKQSPTMTLIYDENGQLLWAQRDVPWLMKMIQPDWLKSNGFHEIEADVNDTSLLLSGDHSIQQQLQEVREDDDDAEMTHSVAVNVYPATSRMPKLTIVVVDTIPVELKSSYMVWSWFIYVLSANLLLVIPLLWVAAWWSLRPIEALAKEVRELEEHNRELLNPATTRELTSLVRNLNRLLKSERERYDKYRTTLTDLTHSLKTPLXXLQXXLRSLRSEKMSVSDAEPVMLEQISRISQQIGYYLHRASMRGGTLLSRELHPVAPLLDNLTSALNKVYQRKGVNISLDISPEISFVGEQNDFVEVMGNVLDNACKYCLEFVEISARQTDEHLYIVVEDDGPGIPLSKREVIFDRGQRVDTLRPGQGVGLAVAREITEQYEGKIVAGESMLGGARMEVIFGRQHSAPKDE

Variants of: B1
Assay: enrichment ratio after two sorts for PhoP signalling (ratio (wild type AVST 3.29)); higher = more functional
Details: with PhoP (E. coli)

Variant | enrichment ratio
WGCF | ≤ 0.25
KRSS | ≤ 0.25
KTMP | ≤ 0.25
HATL | 2.1
LVCR | 0.326
NMQH | ≤ 0.25
TMPR | ≤ 0.25
YVGG | ≤ 0.25
KCCW | ≤ 0.25
MAMM | 2.28
LLEM | ≤ 0.25
EQWN | ≤ 0.25
NSTH | ≤ 0.25
ISNW | ≤ 0.25
FKPC | ≤ 0.25
IHAY | ≤ 0.25
VICI | ≤ 0.25
YELF | 0.264
MDLI | ≤ 0.25
DLRI | ≤ 0.25
RDYV | ≤ 0.25
FRQQ | ≤ 0.25
STGQ | 4.94
YART | ≤ 0.25

Variant | enrichment ratio
SACL | 11
NLCN | ≤ 0.25
ERMD | ≤ 0.25
NMAK | ≤ 0.25
VRLE | ≤ 0.25
FCHS | ≤ 0.25
WRSC | ≤ 0.25
GPMC | ≤ 0.25
IHYI | ≤ 0.25
GAQK | ≤ 0.25
HIPR | ≤ 0.25
WLIK | ≤ 0.25
IGWN | ≤ 0.25
ELWV | ≤ 0.25
NREM | ≤ 0.25
AKTC | 30.2
LRIP | ≤ 0.25
EMKG | ≤ 0.25
TNEP | ≤ 0.25
GQTK | ≤ 0.25
QCSW | ≤ 0.25
DPMC | ≤ 0.25
ERWD | ≤ 0.25
TVLL | ≤ 0.25

Variant | enrichment ratio
TDWY | ≤ 0.25
RELG | ≤ 0.25
MATI | 6.64
PHRT | ≤ 0.25
AKLR | ≤ 0.25
LWWS | ≤ 0.25
GLPL | ≤ 0.25
DEVF | ≤ 0.25
GMML | 9.66
SNFS | ≤ 0.25
WFRI | ≤ 0.25
TIWT | 5.58
YNDF | ≤ 0.25
NKSL | ≤ 0.25
VNMH | 0.826
RDDT | ≤ 0.25
RKMY | ≤ 0.25
YEKF | ≤ 0.25
QTSY | 4.24
EARW | ≤ 0.25
LDQY | ≤ 0.25
GNPA | ≤ 0.25
TDYQ | ≤ 0.25
FCRQ | ≤ 0.25

Variant | enrichment ratio
FEGH | ≤ 0.25
TYQD | ≤ 0.25
AQVC | 9.47
RRAL | ≤ 0.25
WSEI | ≤ 0.25
VRCF | ≤ 0.25
KVQQ | ≤ 0.25
KLMP | ≤ 0.25
LRSN | ≤ 0.25
TSHK | ≤ 0.25
EKAN | ≤ 0.25
EKPY | ≤ 0.25
HAGC | ≤ 0.25
ILEK | ≤ 0.25
AMKC | ≤ 0.25
WGGV | ≤ 0.25
KDQL | ≤ 0.25
ADHT | ≤ 0.25
FDPY | ≤ 0.25
YTCI | 0.979
IMHS | ≤ 0.25
LFHA | ≤ 0.25
GLRT | ≤ 0.25
WNSS | ≤ 0.25

Variant | enrichment ratio
LDHD | ≤ 0.25
TELF | 12.2
VMCP | ≤ 0.25
RYKF | 0.686
DPTT | ≤ 0.25
DMNC | ≤ 0.25
VDLV | ≤ 0.25
KDIQ | ≤ 0.25
ASNI | 8.33
HASI | ≤ 0.25
CKFF | ≤ 0.25
TPMD | ≤ 0.25
DRDW | ≤ 0.25
PMCT | ≤ 0.25
ACCA | 7.21
MANK | ≤ 0.25
HWMS | ≤ 0.25
TNDQ | ≤ 0.25
LQQT | ≤ 0.25
RYCI | ≤ 0.25
PMIL | ≤ 0.25
KCFL | ≤ 0.25
IRWG | ≤ 0.25
TAAN | 1.79

Variant | enrichment ratio
IVGT | ≤ 0.25
MYRW | ≤ 0.25
PKYT | ≤ 0.25
NCYF | ≤ 0.25
MARQ | ≤ 0.25
IPSA | ≤ 0.25
AEMN | 8.59
HVPW | ≤ 0.25
AHRV | ≤ 0.25
IHQM | ≤ 0.25
ELFQ | ≤ 0.25
MKNF | ≤ 0.25
PAHM | ≤ 0.25
MHNT | ≤ 0.25
HNVQ | ≤ 0.25
YPRR | ≤ 0.25
RSMG | ≤ 0.25
LAEA | ≤ 0.25
DSIC | ≤ 0.25
QSKF | ≤ 0.25
FITY | ≤ 0.25
SDCP | ≤ 0.25
AAHP | ≤ 0.25
DCHG | ≤ 0.25

Variant | enrichment ratio
SGDT | ≤ 0.25
LNNW | ≤ 0.25
SDGI | ≤ 0.25
QTPP | ≤ 0.25
QCGD | ≤ 0.25
HIDP | ≤ 0.25
DEDV | ≤ 0.25
AFSV | ≤ 0.25
FKLK | ≤ 0.25
HDFH | ≤ 0.25
DYMH | ≤ 0.25
MIVG | ≤ 0.25
PRSD | ≤ 0.25
WPDI | ≤ 0.25
NGHR | ≤ 0.25
QAPM | ≤ 0.25
QAMS | ≤ 0.25
EFWR | ≤ 0.25
HNAG | ≤ 0.25
AYGK | ≤ 0.25
MCRF | ≤ 0.25
PGVL | ≤ 0.25
NMFC | ≤ 0.25
EYSE | ≤ 0.25

Variant | enrichment ratio
YAPA | ≤ 0.25
RNFL | ≤ 0.25
GRVT | ≤ 0.25
SCPD | ≤ 0.25
NNIQ | ≤ 0.25
CCLT | ≤ 0.25
HFGN | ≤ 0.25
QDRL | ≤ 0.25
GFKV | ≤ 0.25
KIGA | ≤ 0.25
GWAE | ≤ 0.25
VMQY | ≤ 0.25
HCYS | ≤ 0.25
QLHY | ≤ 0.25
GPDY | ≤ 0.25
SYHD | ≤ 0.25
SATS | 14.2
RVDV | ≤ 0.25
GYGA | ≤ 0.25
EADG | ≤ 0.25
NIAY | ≤ 0.25
VHAV | ≤ 0.25
TPTC | ≤ 0.25
WQDP | ≤ 0.25

Variant | enrichment ratio
PDNV | ≤ 0.25
GSWH | ≤ 0.25
HTKI | ≤ 0.25
KEAF | ≤ 0.25
LHWG | ≤ 0.25
RERM | ≤ 0.25
WMQY | ≤ 0.25
HQEY | ≤ 0.25
LYGT | ≤ 0.25
FAFG | ≤ 0.25
WYLY | ≤ 0.25
EGGV | ≤ 0.25
HFLF | ≤ 0.25
QCNE | ≤ 0.25
MHNK | ≤ 0.25
GVWL | ≤ 0.25
FSNT | ≤ 0.25
RRKL | ≤ 0.25
RIFN | ≤ 0.25
RTAW | ≤ 0.25
YELG | 4.61
DMCY | ≤ 0.25
KRSQ | ≤ 0.25
PPKD | ≤ 0.25

Variant | enrichment ratio
ASLD | 2.9
ICGD | ≤ 0.25
NCTG | ≤ 0.25
KICD | ≤ 0.25
PKQM | ≤ 0.25
NLKK | ≤ 0.25
GARV | ≤ 0.25
HYRV | ≤ 0.25
SHFP | 0.324
SKQG | ≤ 0.25
VGRW | ≤ 0.25
YYMW | ≤ 0.25
AYSD | ≤ 0.25
HPMI | ≤ 0.25
LDME | ≤ 0.25
IMIA | ≤ 0.25
SRFM | ≤ 0.25
YSNH | ≤ 0.25
PQYM | ≤ 0.25
MINP | ≤ 0.25
MRMY | ≤ 0.25
NEQR | ≤ 0.25
RMEL | ≤ 0.25
VDQQ | ≤ 0.25

Variant | enrichment ratio
IKDP | ≤ 0.25
AIRK | ≤ 0.25
QTYN | 1.99
RIVP | ≤ 0.25
KHSV | ≤ 0.25
IDDR | ≤ 0.25
QSDD | ≤ 0.25
MDDY | ≤ 0.25
LMFW | ≤ 0.25
MDIV | 6.39
ATAI | ≤ 0.25
EQQF | ≤ 0.25
HESA | ≤ 0.25
PMSG | ≤ 0.25
AMRQ | ≤ 0.25
MNPT | ≤ 0.25
RLLW | ≤ 0.25
NRDH | ≤ 0.25
FAMY | ≤ 0.25
RWIM | ≤ 0.25
TMWM | ≤ 0.25
WLGM | ≤ 0.25
KHNA | ≤ 0.25
STSE | 8.39

Variant | enrichment ratio
NDSS | ≤ 0.25
TCVS | 0.384
WCMF | ≤ 0.25
DKDC | ≤ 0.25
AEYQ | ≤ 0.25
VFYV | ≤ 0.25
LFWW | ≤ 0.25
RINF | ≤ 0.25
WGLA | ≤ 0.25
EDSM | ≤ 0.25
RQYE | ≤ 0.25
YFYV | ≤ 0.25
GNDM | ≤ 0.25
TVFM | ≤ 0.25
YERW | ≤ 0.25
MTAK | ≤ 0.25
DQVR | ≤ 0.25
AIQF | ≤ 0.25
EHML | ≤ 0.25
DKNI | ≤ 0.25
HPYD | ≤ 0.25
AYTF | ≤ 0.25
LKSQ | ≤ 0.25
PHWK | ≤ 0.25

Variant | enrichment ratio
GAHC | ≤ 0.25
YATP | ≤ 0.25
LAVA | ≤ 0.25
LNII | ≤ 0.25
SIQC | 3.12
TDDA | ≤ 0.25
TKCQ | 11.7
GTLQ | 15.2
EVPH | ≤ 0.25
TDFP | ≤ 0.25
IGPQ | ≤ 0.25
YTWQ | ≤ 0.25
YGQM | ≤ 0.25
FRGH | ≤ 0.25
WNTN | ≤ 0.25
ISMT | ≤ 0.25
YFDI | ≤ 0.25
FMCN | ≤ 0.25

Reference: a collection of fitness landscapes (doi:10.1126/science.1257360)
